Molecular target: Human hemoglobin A, oxidized form (methemoglobin, MetHb) (human, UniProt P69905 1-142; P68871 1-147)
Experiment: stoichiometric titration by UV-Vis absorbance
Details: both partners purified

Sequence of UniProt P69905 (P69905 whole entry, chain 1 of 2): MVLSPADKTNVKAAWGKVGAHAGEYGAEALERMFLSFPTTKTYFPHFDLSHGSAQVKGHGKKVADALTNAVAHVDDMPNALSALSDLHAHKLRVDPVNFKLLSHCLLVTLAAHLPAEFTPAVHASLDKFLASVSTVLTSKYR
Sequence of UniProt P69905 (P68871 whole entry, chain 2 of 2, further chain): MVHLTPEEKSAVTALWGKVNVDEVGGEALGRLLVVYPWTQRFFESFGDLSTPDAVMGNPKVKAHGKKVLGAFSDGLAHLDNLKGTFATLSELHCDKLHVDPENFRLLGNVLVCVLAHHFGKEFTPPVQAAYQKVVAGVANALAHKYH

B1: IsdB (NEAT1 and NEAT2 domains connected by the helical linker), wild type (domain or fragment)
chain: not shown
stoichiometry N: 1 IsdB per Hb monomer

From publication PMC6901573 (Scientific Reports, 2019)
